# Measurements from PubChem BioAssay AID624296 (National Center for Advancing Translational Sciences (NCATS), 2012).
# In all, about 350,000 compounds went through this assay and about 9,900 (2.8%) were called active. Inconclusive means that the source gave no clear call. Such entries were picked first, then a sample of the others. The call rests on the fitted dose curve; in most records, active means well fitted activation curve with a large enough effect; inconclusive means small, poorly fitted or top-dose-only effect; inactive means no such curve, though single readings can be large or run the other way. No potency is given beside an inconclusive call; the fits are too rough.
# Assay: A quantitative high throughput screen for small molecules that induce DNA re-replication in MCF 10a normal breast cells. Further: nearly all actives have a fitted effect of over 50% in size. On activity, positive = re-replication: % of control where 0% means no effect.
# Settings: MCF 10A DNA re-replication, Hoechst nuclear intensity, 48 h; activity, positive = re-replication: at 46.1 µM (top of the series)
# Potency means the concentration at half of the fitted maximal effect; tags describe the fitted curve by direction and shape.
SMILES,"activity, positive = re-replication",Potency
CN(C)S(=O)(=O)c1cccc(NC(=S)N/N=C/C2CC=CCC2)c1 (stereo unspecified),inactive: -32.9%,–
CCCCCCCCCCCC(=O)NC(C(=O)O)C(O)c1ccccc1 (stereo unspecified),–,"inconclusive [activator, partial curve, poor fit]"
COc1cc(OC)c2c(-c3cccc(-c4ccc(NC(C)=O)cc4)c3)cc(=O)oc2c1,–,"inconclusive [activator, partial curve, poor fit]"
O=C1C2C3C=CC(C2C(=O)N1c1cccc(O)c1)C1C2C(=O)N(c4cccc(O)c4)C(=O)C2C31 (stereo unspecified),–,"inconclusive [activator, partial curve, poor fit]"
O=c1oc2ccccc2c(NC2CCCCC2)c1NS(=O)(=O)c1ccc(F)cc1,–,"inconclusive [activator, single point]"
CCCCCc1nnc(NC(=O)CS(=O)(=O)Cc2ccccc2)s1,inactive: -1.93%,–
O=C(C1=C[C@H](c2ccc(C(F)(F)F)cc2)C[C@H](OCCCCO)O1)N1CCOCC1,–,"inconclusive [activator, full curve, poor fit]"
COc1cccc2c(=O)n(CC(=O)N3CCN(c4ccccc4)CC3)ccc12,–,"inconclusive [activator, single point]"
CCCSc1nc(N)cc(=O)[nH]1,–,"inconclusive [activator, partial curve, poor fit]"
Cc1cccn2cc(-c3ccccc3)nc12,inactive: -6.2%,–
Cc1ccc2c(c1)N(C(=O)NC1CCCCC1)C(C)(C)CC2C (stereo unspecified),–,active: 9.2 µM
Cc1cccc(C(=O)Nc2ccc(O)c3c(=O)cc(-c4ccccc4Cl)oc23)c1,–,"inconclusive [activator, partial curve, poor fit]"
CCc1noc(C)c1C(=O)OCC(=O)NCc1ccccc1OC,inactive: 1.32%,–
Cc1ccc(OCc2cc(C(=O)N(C)Cc3cnc4ccccn34)no2)cc1C,–,"inconclusive [activator, partial curve, poor fit]"
CCOC(=O)CNC(=O)C1CCCc2c1[nH]c1ccc(Cl)cc21 (stereo unspecified),–,"inconclusive [activator, single point]"
Cc1ccc(C(C(=O)NCc2ccco2)N(C(=O)CNC(=O)c2cccs2)c2c(C)cccc2C)cc1 (stereo unspecified),–,active: 18.4 µM
CC(=O)Nc1ccc2c(c1)Cc1c-2cc(Br)c(N)c1Br,inactive: -4.06%,–
COc1ccc(-c2noc(-c3cccs3)n2)cc1OC,inactive: -19.2%,–
COc1cc(Br)c(CC(=O)NNC(=O)c2ccc(F)cc2)cc1OC,inactive: -0.209%,–
CCOC(=O)NCc1ccc(S(=O)(=O)Nc2c(C)cccc2C)cc1,inactive: 1.54%,–
O=C(CCC(=O)N1CCCCC1)Nc1nnc(C2CCCCC2)s1,–,"inconclusive [activator, partial curve]"
O=C(O)c1ccc(N2C(=O)CSC2=S)cc1,inactive: 16.6%,–
COc1ccccc1NC(=O)C1=C(C)NC(SCC(=O)c2ccccc2)=C(C#N)C1c1ccco1 (stereo unspecified),–,"inconclusive [activator, partial curve, poor fit]"
COc1cc2c(cc1OC)CN(C(=O)/C=C/c1cccs1)CC2,–,active: 4.11 µM

SMILES,"activity, positive = re-replication",Potency
O=C(COc1cccnc1[N+](=O)[O-])N1N=C(c2ccc(Cl)cc2)CC1c1ccco1 (stereo unspecified),inactive: -2.45%,–
O=C(c1cccs1)n1nc(-c2ccc(Cl)cc2)nc1NCc1ccco1,–,"inconclusive [activator, partial curve, poor fit]"
CN(C)CCCNC(=O)C(=O)NCC(c1cccs1)S(=O)(=O)c1ccc(F)cc1 (stereo unspecified),inactive: 12.2%,–
O=C1/C(=C/c2ccc(F)cc2)SC(=S)N1NS(=O)(=O)c1ccccc1,–,"inconclusive [activator, partial curve, poor fit]"
C=CCN1C(=O)C(O)(CC(=O)c2ccc(-n3cccc3)cc2)c2ccccc21 (stereo unspecified),–,"inconclusive [activator, single point]"
CCOC(=O)c1[nH]c2c(c1-c1ccccc1)C(=O)CC(c1ccccc1)C2 (stereo unspecified),–,"inconclusive [activator, partial curve, poor fit]"
COc1cccc(Nc2nc(NCC3CCCO3)c3ccccc3n2)c1 (stereo unspecified),–,"inconclusive [activator, partial curve]"
CCCOC(=O)c1ccc(Oc2cn[nH]c2-c2ccc(O)cc2O)cc1,–,"inconclusive [activator, single point]"
O=C(NC1CC1)c1ccc2c(c1)C1C3CCC(C3)C1C(c1ccccc1)N2 (stereo unspecified),–,"inconclusive [activator, single point]"
Cc1cccc(NC(=O)c2nc[nH]c2C(=O)N[C@@H](CC(C)C)C(=O)OCc2ccccc2)c1,–,"inconclusive [activator, single point]"
Cc1ccc(OCC(COCc2ccccc2)NC(C)C)cc1 (stereo unspecified),–,"inconclusive [activator, single point]"
O=C(c1cccc(Cl)c1Cl)N1CCN(c2ccccn2)CC1,–,"inconclusive [activator, partial curve, poor fit]"
Cn1c(=O)c2nc(NCc3ccccc3)cnc2n(C)c1=O,inactive: 0.351%,–
CC1CCCN(CCC(=O)c2ccc(Br)cc2)C1 (stereo unspecified),–,"inconclusive [activator, single point]"
CN1CCN(C(=O)c2ccc(CNS(=O)(=O)c3cccc(Cl)c3)cc2)CC1,–,"inconclusive [activator, partial curve]"
CC#CC(=O)N1CCC(C(=O)Nc2ccc(Oc3ccccc3)nc2)CC1,inactive: -0.784%,–
Nc1ccc(C(=O)NN2C(=O)[C@H](Cl)C2c2ccc(Cl)cc2)cc1 (stereo partly specified),–,active: 16.4 µM
CCOC(=O)Nc1ccc2c(c1)N(C(=O)CCCl)c1ccccc1[S@]2=O,–,"inconclusive [activator, single point]"
COc1ccc(CCNC(=O)C(=O)NCCC2CCCCN2S(=O)(=O)c2cccs2)cc1 (stereo unspecified),–,"inconclusive [activator, partial curve, poor fit]"
O=C(Nc1nc(-c2ccc(S(=O)(=O)N3CCCC3)cc2)cs1)C1COc2ccccc2O1 (stereo unspecified),–,"inconclusive [activator, full curve]"
COC(=O)c1cc2c(-c3ccccc3)cc3ccccn3c-2c1C(=O)OC,–,"inconclusive [activator, single point]"
COCCNC(=O)c1c(N)n(/N=C/c2ccc(F)cc2)c2nc3ccccc3nc12,–,active: 2.59 µM
CCCOc1ccc(/C=N/Nc2ccc(C(=O)O)cc2)c(OCCC)c1,–,active: 7.31 µM
O=S(=O)(Nc1nc2ccccc2nc1Cl)c1ccccc1C(F)(F)F,inactive: 16.6%,–

SMILES,"activity, positive = re-replication",Potency
O=C(/C=C/c1cccc([N+](=O)[O-])c1)n1cnc2ccccc21,–,active: 3.66 µM
O=C(CSc1ccc([N+](=O)[O-])cn1)Nc1ccc2c(c1)OCO2,inactive: -0.469%,–
COc1cccc(-c2nnc(NC(=O)CCS(=O)(=O)c3ccc(C)cc3)o2)c1,–,"inconclusive [activator, partial curve, poor fit]"
CCOC(=O)N1CCN(C(=O)C2CCN(S(=O)(=O)c3cc(OC)ccc3OC)CC2)CC1,inactive: 8.45%,–
CCCc1ccc(Oc2cc(N3CCOCC3)nc(-c3ccccc3)n2)cc1,–,"inconclusive [activator, partial curve, poor fit]"
CCOC(=O)Nc1ccc2c(c1)N(C(=O)CCN1CCOCC1)c1ccccc1S2=O (stereo unspecified),–,active: 10.3 µM
Cn1c(=O)c2c(nc(CN3CCc4ccccc4C3)n2CCCO)n(C)c1=O,–,"inconclusive [activator, full curve, poor fit]"
CC1=NN(Cc2ccccc2)C(=O)C1C(c1ccccc1)C(C#N)C#N (stereo unspecified),inactive: 1.25%,–
CCOC(=O)c1sc(Nc2nc3c(F)cccc3s2)cc1C,–,active: 20.6 µM
CCN(CC(=O)Nc1cc(Cl)ccc1C)C(=O)c1oc2ccc(OC)cc2c1C,inactive: 15.4%,–
COC(=O)[C@@]1(Cc2ccc(F)cc2)[C@H]2c3cc(C(=O)N4CCCC4)n(CCCNc4ncc(C(F)(F)F)cc4Cl)c3C[C@H]2CN1C(=O)c1ccccc1,–,active: 5.8 µM
COc1ccc(/C=C(\NC(=O)c2ccccc2)C(=O)OCC2CCCN3CCCCC23)cc1OC (stereo unspecified),–,"inconclusive [activator, partial curve, poor fit]"
COc1ccc(CC2NCCC3=CC(=O)CCC32)cc1O (stereo unspecified),inactive: -29.8%,–
CCN(CC)C(=O)C1CCN(Cc2cn(C)nc2-c2ccc(Oc3ccccc3)cc2)CC1,inactive: 3.08%,–
COc1ccccc1OCCCC(=O)Nc1nnc(C2CCCO2)s1 (stereo unspecified),inactive: -0.216%,–
C/C(=N\NC(=O)c1ccccc1F)c1cccc(NC(=O)c2ccc(C)cc2)c1,inactive: 5.89%,–
CN(Cc1c(F)cccc1Cl)C(=O)c1ccc(NC(=O)CC2SC(N3CCCC3)=NC2=O)cc1 (stereo unspecified),inactive: 1.55%,–
O=C(O)c1ccc([N+](=O)[O-])c(CS(=O)(=O)c2ccccc2)c1,–,"inconclusive [activator, single point]"
Cc1cc(C)cc(NC(=S)Nc2cccc3ccccc23)c1,inactive: -15.2%,–
Cc1cc(C)n(-c2nc(NCCN(C)C)c3c4c(sc3n2)CCCC4)n1,–,"inconclusive [activator, single point]"
OC(c1ccccc1)(c1ccccc1)c1ccn[nH]1,–,"inconclusive [activator, full curve, poor fit]"
Cc1ccc(NC(=O)c2c(C)nn(-c3ccccc3)c2Cl)cc1,inactive: 3.93%,–
CC1=NN(C(N)=S)C(=O)C1N=Nc1ccccc1Cl (stereo unspecified),–,"inconclusive [activator, partial curve, poor fit]"
